Assay results taken from the supplement of paper PMC3334620.
Whole data set: some 33,000 sequences, median “E-score (-0.5 to 0.5)” near -0.012, cut for the highest 2% near 0.27. The list shows a part of the results.

target: T1, Vhr1 (UniProt P40522); experiment: PBM E-score (8-mer binding enrichment) (E-score (-0.5 to 0.5)); higher = stronger / more preferred TF binding; most listed sequences are background and not binding sites; conditions: protein concentration: 200 nM; construct: GST-full length
T1 sequence: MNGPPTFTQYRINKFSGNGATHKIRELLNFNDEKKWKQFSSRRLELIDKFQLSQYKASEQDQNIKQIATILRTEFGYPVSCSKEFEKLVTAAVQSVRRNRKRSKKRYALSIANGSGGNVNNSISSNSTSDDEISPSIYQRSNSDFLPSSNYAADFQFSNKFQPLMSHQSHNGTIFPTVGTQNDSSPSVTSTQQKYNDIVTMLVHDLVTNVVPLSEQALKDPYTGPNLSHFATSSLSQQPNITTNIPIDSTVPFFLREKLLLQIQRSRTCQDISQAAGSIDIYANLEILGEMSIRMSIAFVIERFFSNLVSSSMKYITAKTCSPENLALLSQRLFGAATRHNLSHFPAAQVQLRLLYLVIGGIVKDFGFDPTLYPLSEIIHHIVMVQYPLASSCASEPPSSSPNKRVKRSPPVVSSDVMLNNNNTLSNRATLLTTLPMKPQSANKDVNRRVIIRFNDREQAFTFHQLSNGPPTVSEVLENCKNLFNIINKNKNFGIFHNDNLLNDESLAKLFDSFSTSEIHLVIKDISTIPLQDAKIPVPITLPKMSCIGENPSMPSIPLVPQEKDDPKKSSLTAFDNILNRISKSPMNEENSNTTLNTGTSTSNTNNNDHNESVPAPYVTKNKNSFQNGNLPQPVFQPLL
Method in brief: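 Universal all-10-mer Agilent arrays, fresh or stripped once, were converted to double-stranded form by primer extension. GST-tagged yeast transcription factors from PURExpress in vitro transcription/translation, full-length or DNA-binding domain only, were applied at about 100-200 nM and detected with fluorescent anti-GST. After masliner normalisation, the Universal PBM Analysis Suite scored each ungapped eight-base word together with its reverse complement by E-score.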

Sequence	PBM E-score
ACTGCTTC	-0.0428
TATCGGAA	-0.0585
GTCGCTTA	-0.114
GTGCCCTA	-0.252
AATCCCAG	0.0917
CTAGCGAC	-0.00899
AGTCCATC	-0.0289
GAGTACGA	0.234
GCCATGGA	0.0483
TCGGCTCA	-0.0779
GCAGTATA	0.0737
CGTCGCGA	0.181
ACCTGGCT	0.054
AACATGAC	0.257
CGACGTAA	-0.0016
GTCCCCGA	-0.0721
CGACTCAA	0.386
ACCGGTAT	-0.0468
CACAGCAA	0.204
ACTGCTAT	0.136
CGGTAAAC	-0.115
AAGGTGGA	-0.0152
AATGGCGC	-0.182
ATCCTGAA	0.194
AGACATCG	0.0974

Sequence	PBM E-score
CGATTACA	-0.0503
ATGCCAAA	-0.0835
AACTCGCG	0.172
CTAATACC	-0.0756
GCCTACTA	0.152
ATTAGTTG	0.0201
ACTAGTCC	0.133
GGGTAAGA	0.0216
TACCATCA	0.0508
CGCTTTGA	-0.121
AGGGGACC	-0.0666
ATAATAAA	0.0623
TAGACTCA	0.221
ACTCGGTC	0.0948
GCGCAAGC	0.131
ACGCTTAA	-0.13
ACACCAGC	-0.0125
AGCTGATA	-0.105
AAAAAGAC	-0.239
TCAGACGA	0.137
CTAAGTAC	-0.0397
AAGAGGAC	-0.0872
CACATCAC	0.0638
GCATAAAC	0.0187
CACTAAGA	0.0295

Sequence	PBM E-score
CGGGCCAA	-0.158
ATCCTGTC	0.177
ATAGCTCA	0.0225
AACATAGT	0.182
GACATTGC	-0.114
ATATTTAA	0.159
ATGGTCCC	-0.0815
CGGTACTC	0.176
TCACCCGA	0.141
AGAGCAAT	-0.117
AAGAGCGG	0.0833
CACCTTTC	-0.192
ATCGTAAA	-0.0323
GGCGTGTA	0.037
CTGGGTGA	0.275
GCAACGCA	-0.243
ACGTAGCT	0.0213
GCAGCGCC	-0.0717
CGGTGTCC	-0.121
ACTTTTTA	-0.0921
AAGATAAC	0.0252
TGCCCTAA	-0.269
ACTCTAAT	0.0306
GATCCTCC	-0.167
GCAGCAAA	0.0207

Sequence	PBM E-score
ACTCCAAC	0.106
CGGGGGGC	-0.102
GGGCCCAA	-0.0359
CACGTGTC	0.0728
GGGATTGA	-0.131
AAATCTAA	-0.17
AGTTTTGA	0.00733
CGGTATAC	0.0514
GGTATGCA	0.0684
GGCTCGAC	0.0349
GCCTCACC	-0.101
CAGTATGC	0.0528
AGTGTAAA	-0.00712
TATCTCGA	-0.21
CGCTTGGA	-0.0381
AGAGGCCT	-0.267
AAGGTTGC	-0.146
ATCGATGG	0.207
GTGCCAGA	-0.146
ACCTTCGG	0.0284
CCATATTC	0.0327
ATCAGCCC	0.197
CAATGTCC	0.00719
CCCCACCC	0.36
CCCTACGC	-0.147

Sequence	PBM E-score
CTTCAGAA	-0.201
GCCTGAAC	-0.146
GGGCCACC	0.096
GTGTTTCA	-0.00837
AAAGGAAA	-0.0406
ATGTAACA	0.127
CTCGGCGA	0.111
GCTATAAC	-0.107
AGGAAGGC	-0.107
AAAGGGTA	-0.106
AAGCGCCC	0.0488
CGAGTCTA	-0.0817
TCAAATCA	-0.025
CAAGGGGA	-0.157
GAACATTA	-0.0846
ATTGCCTG	0.0234
AGGGCCTG	-0.0748
CCATCACA	0.0295
CACGGATG	-0.0264
AACTGATG	0.106
AGTATTAG	0.222
CGGTGACC	-0.121
AGCAACCA	0.24
AAATCGGC	-0.136
AAAAACCT	-0.0735

Sequence	PBM E-score
CTGCCCGA	0.0321
AAAGAGCA	-0.155
GTTGCTCA	-0.0502
GAGTTTCC	-0.284
CGGGACAG	0.034
AGCGCCAA	-0.0793
GTTACCAA	0.0611
ACAGAGTC	0.296
ACTCACCT	0.244
GTACGAAA	-0.0549
ACTCTAGG	-0.072
GAACTATA	0.222
CCGAGAGA	0.111
CGGACAGC	-0.164
ACGCGCGA	0.173
AACTCATA	0.141
AGTTATAT	0.209
CTTAATCC	-0.0876
CATCGGTA	0.0677
GCAGTCCC	0.106
GGGGTGAA	0.0563
GTTCTTAA	-0.119
CTTTCTGC	-0.0509
GTCATAGA	0.13
CCGTGAAG	-0.286

Sequence	PBM E-score
ATTGGTGG	0.041
ACGTACAT	0.0383
ATTGCTCG	-0.0231
CCGTCTAC	-0.0423
CTTTCAAA	-0.0961
CACGCCTC	-0.0306
CCGAGGCA	-0.0613
AAACGGAT	0.144
GCACTTAA	-0.0709
GCCGAATA	0.0476
ACCTGACT	0.374
AACTATAG	-0.0781
GGTGCACC	-0.187
CAGAATCA	0.313
CTCGACCA	-0.204
CCATGCGC	0.0464
AATTGGAC	-0.0766
ACGCAGTC	0.169
GGCTACGA	0.0544
AGGACCCA	0.00758
CATCATCC	0.119
AATGTACA	0.0891
CCTAGTAA	0.0993
AAATAAAG	-0.0552
TCACTAAA	0.153

Sequence	PBM E-score
AGCACAGG	0.00375
CGACTAAA	0.0758
ATCACGAA	0.137
AGAACTGC	-0.0768
GACAGTTA	0.0217
AGATCACG	0.101
TCCGCGAA	0.102
AATTGTAG	-0.0816
CCGCGAAG	0.039
AAAAGCGG	-0.121
CGACGCCA	0.163
AGTGTCCA	0.0162
ACCTCGAT	0.146
AAGACAGG	-0.0702
GAGAGTCC	-0.0872
CTTTATGA	0.1
CACGTTTA	-0.108
CTCACCTA	0.103
GGTGTGCA	0.0446
GTGAACCA	0.152
TACTCCTA	0.123
CTAGTTCC	-0.0541
CTCCAAAC	0.182
CCGGTCCA	-0.167
AGCTTAGG	-0.0375

Sequence	PBM E-score
ACCTAGAC	0.0688
CAGGTCCG	-0.0013
AGTAGGTC	-0.0653
AGGTCCCA	-0.0161
CCAGGTGC	0.094
AGTAGGAA	0.0507
CGGGGGAA	-0.0131
ACAAGACA	0.182
ACCGATAC	0.109
AGGGGCAG	-0.163
AAAAGCAA	-0.172
ATCCCGAC	0.185
ATTGGTAG	0.0879
GCCGTAGA	-0.138
GGTAAGTA	-0.0331
ATGCGTTA	0.0237
CGTAGTAG	0.082
ATTTCGAG	-0.0958
ATACGGAG	0.127
AATAGCAA	-0.117
GAATCGCA	0.00272
CGTAGCGC	-0.129
GCTTCTTA	-0.116
ATCGTTAG	-0.0396
AATCGAGA	-0.00051

Sequence	PBM E-score
AACCTGCT	0.0419
CCGCGCTC	0.0972
CATTTACG	-0.0814
GGTCTTTA	-0.0868
ATGCGAAC	0.119
TGAAGCAA	-0.215
CCTGACTA	0.391
ATAATCTC	0.0508
ATGCCTAC	-0.15
GTTTGTCA	-0.0383
AGAATTAG	-0.166
CGAAGTTC	-0.16
AACCCGTG	-0.107
AACTTGCC	-0.177
TCTAAGCA	0.0117
AATAGTGG	-0.0759
AAAAATCT	-0.231
GCAACCGA	0.0373
GGATGTGA	0.0365
CGGTCGGC	-0.107
AGAGTTAA	-0.0988
GAACCCGC	-0.139
AACGAGGA	-0.00876
GGAATTCC	-0.279
AGAGTCGG	0.329

Sequence	PBM E-score
TCTACGCA	-0.018
GAACTCGA	-0.0101
CACCAATG	0.147
AGAAAAGA	-0.315
CAGTTTAC	-0.0698
AGTTTAGC	-0.127
AATGCACG	-0.0807
GACCTCGC	-0.0089
GAAGACAC	0.0155
CCGATGGA	-0.036
CGTTTAAA	-0.219
AAGTCACG	0.336
ATAATCCC	0.0633
CAAAATCC	0.096
ATAACCAA	0.0388
AGCCACAA	0.0444
CAATCTGC	-0.0194
GATGAGTA	0.382
CAGCGTCC	0.0164
CAAACACC	-0.0718
ATTCCGGC	0.0156
AACGCTCA	-0.0577
CCACTTAG	-0.0134
CCTGCCCC	0.00204
CTATTATC	-0.158

Sequence	PBM E-score
CTCTAAGA	-0.0971
GACTCAAA	0.266
CCCTCGTC	0.0663
CGTCCTGA	-0.0229
CTCAAAAC	0.0113
CGGGATGA	0.145
CAGTTTAG	-0.264
CAAACCTC	-0.0936
GTGGCTGA	0.175
GTAGGGAA	-0.0993
GTCTTACA	0.0006
ACAGCTTC	-0.194
CAAAACCA	0.126
GAATCTTA	-0.00777
ATAAGTGC	-0.105
GATTCACA	0.326
AAAACCTG	-0.142
GTCTCAAA	-0.154
GCCGGTAA	0.195
CCGGCCTC	-0.105
CATCTCGA	-0.0977
AACTAACT	-0.0819
ATAGTTCC	0.164
GCAGAACC	-0.0512
CAAATTCG	-0.0604

Sequence	PBM E-score
TCAAAAGA	-0.0618
ACCTGCGA	0.0234
CTGCTCAC	0.0104
GAACTGTA	0.0842
CTGTCAAC	0.0314
GGCATCAA	-0.122
CAAATAGG	-0.0194
CCATCACG	0.109
ACACGACC	0.109
GTAGTGCA	0.0873
AGACTTGG	-0.119
AATCAGCA	0.23
ACAACATA	0.0715
GACGACCA	-0.0813
AATTTGTA	-0.0169
TAGCTCGA	0.083
CCTTCTGC	-0.0698
AATTCGCG	-0.02
AGGATAAA	-0.0475
ACCAACGC	0.043
AGGAAACA	0.0101
CTGATGGC	0.0804
ATTGTTAG	-0.094
GTATTCTA	0.0349
ACTGTTCT	0.199

Sequence	PBM E-score
CATTAACC	0.21
ATCAGTCG	0.23
CCTACGTC	-0.178
ATGAATTA	-0.0774
AAAACCAA	-0.0825
ATTCACTC	-0.0177
CATTCCCG	0.0423
ATACTTGG	0.0655
GGGGAGTA	0.17
AATGGGTG	0.162
ATCTATGG	0.00719
GTGTCAAA	-0.00029
AAAGGCCG	-0.124
ACGAGACA	0.127
ATTGGCTC	0.0185
CGAAGGTC	-0.103
ATCGGGGG	-0.149
ACGCCCTC	-0.111
GAATACAA	0.127
